Measurements: publication PMC4336329 (PLoS ONE, 2015)
The campaign covered roughly 310,000 compounds. About 2,200 (0.71%) showed an effect of 50% or more. The effect is printed as a negative number. The list shows a part of the results.

molecular target: human ether-à-go-go-related gene (hERG) potassium channel (human, UniProt Q12809); test: primary screen, population patch clamp on CHO cells stably expressing hERG
Sequence (Q12809 whole entry, looked up): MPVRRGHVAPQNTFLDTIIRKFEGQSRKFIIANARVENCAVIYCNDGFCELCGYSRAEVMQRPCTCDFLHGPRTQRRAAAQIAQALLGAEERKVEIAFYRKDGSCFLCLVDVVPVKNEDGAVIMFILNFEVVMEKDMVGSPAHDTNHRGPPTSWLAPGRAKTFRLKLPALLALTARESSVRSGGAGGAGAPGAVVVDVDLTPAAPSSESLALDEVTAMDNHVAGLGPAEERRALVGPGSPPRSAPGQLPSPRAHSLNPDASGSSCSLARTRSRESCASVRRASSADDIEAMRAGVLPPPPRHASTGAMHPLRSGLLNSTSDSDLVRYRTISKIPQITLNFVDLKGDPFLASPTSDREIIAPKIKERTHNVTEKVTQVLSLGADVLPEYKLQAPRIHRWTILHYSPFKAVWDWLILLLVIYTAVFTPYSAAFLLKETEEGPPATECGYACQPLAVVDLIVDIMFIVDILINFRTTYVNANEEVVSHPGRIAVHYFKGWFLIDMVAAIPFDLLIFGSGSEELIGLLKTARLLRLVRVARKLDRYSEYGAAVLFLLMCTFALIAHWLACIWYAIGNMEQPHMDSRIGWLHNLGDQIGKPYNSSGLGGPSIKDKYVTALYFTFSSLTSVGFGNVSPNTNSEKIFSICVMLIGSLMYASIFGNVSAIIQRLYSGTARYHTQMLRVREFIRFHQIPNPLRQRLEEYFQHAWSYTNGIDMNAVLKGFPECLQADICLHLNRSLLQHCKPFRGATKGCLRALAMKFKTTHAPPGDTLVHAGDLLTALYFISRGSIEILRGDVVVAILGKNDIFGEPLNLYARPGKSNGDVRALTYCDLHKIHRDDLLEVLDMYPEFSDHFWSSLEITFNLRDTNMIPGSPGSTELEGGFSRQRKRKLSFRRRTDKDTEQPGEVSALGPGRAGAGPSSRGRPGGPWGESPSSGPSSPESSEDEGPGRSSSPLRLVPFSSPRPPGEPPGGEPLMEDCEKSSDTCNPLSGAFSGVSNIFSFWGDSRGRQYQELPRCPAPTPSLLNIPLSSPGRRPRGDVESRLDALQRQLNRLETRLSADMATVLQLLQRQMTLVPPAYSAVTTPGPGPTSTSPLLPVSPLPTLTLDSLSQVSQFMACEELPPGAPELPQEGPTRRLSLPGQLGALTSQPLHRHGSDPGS

| Structure (SMILES) | hERG current change (%, negative = inhibition) at 1uM |
| --- | --- |
| O=C(Nc1cccc(C(=O)O)c1)/C(=C\c1ccc2c(c1)OCO2)NC(=O)c1ccccc1 | 3.01% |
| Oc1ccc(N=Nc2ccc3c(c2)OCCO3)c(O)c1 | 9.42% |
| N#Cc1cccc(NC(=O)COC(=O)c2ccccc2Sc2ccccc2C#N)c1 | 9.28% |
| CCN(CC(=O)Nc1ccc(OC)cc1)C(=O)CSCc1c(C)noc1C | 4.8% |
| O=C(Nc1ccccc1N1CCOCC1)c1ccc2ccccc2n1 | 12.4% |
| Cc1ccccc1OCCSc1nnc(-c2cccnc2)n1N | 13.7% |
| CN(C)N=Nc1nc[nH]c1C(N)=O | 7.82% |
| COCCn1c(=NC(=O)CCS(=O)(=O)c2ccccc2)sc2cc(F)ccc21 | 3.85% |
| O=C(c1ccccc1N(Cc1ccccc1)S(=O)(=O)c1ccccc1)N1CCOCC1 | 1.25% |
| CC(/C=N/Nc1nc(N2CCCCC2)nc(N2CCCCC2)n1)=C\c1ccccc1 | 12.2% |
| CC(C)CNC(=O)c1noc2c1CCCC2 | 11.1% |
| Cc1ccc(OCC(=O)NNC(=O)C2CCN(c3ncccn3)CC2)cc1 | 3.85% |
| CCOC(=O)c1c(S(=O)(=O)NCC(C)c2ccccc2)c(C)n(C)c1C (stereo not shown) | 4.64% |
| O=C(c1ccc(CN2CCc3ccccc3C2)cc1)N1CCCCC1 | 8.8% |
| CCN1C(=O)CC(c2ccco2)Sc2ccccc21 (stereo not shown) | -0.834% |
| CC(C)c1nnc(NC(=O)CC(=O)Nc2ccccc2C(=O)O)s1 | 8.36% |
| O=C(/C=C/c1ccccc1[N+](=O)[O-])OCC(=O)c1ccccc1 | 3.23% |
| CCOC(=O)C(CCC(=O)O)(CCC(C)C)c1csc(N)n1 (stereo not shown) | -6.1% |
| Oc1c(C(c2ccccn2)N2CCC(Cc3ccccc3)CC2)cc(Cl)c2cccnc12 (stereo not shown) | 8.8% |
| CCOCCc1nnc(NC(=O)C(CC)c2ccccc2)s1 (stereo not shown) | 9.75% |
| COc1ccc(C2CCCN2C(=S)Nc2cccc(C)c2)cc1OC (stereo not shown) | 5.51% |
| CC(C)[C@H](N)C(=O)NC[C@H](CC(=O)NCC1CCC(C(=O)O)CC1)c1ccc(Cl)cc1.Cl (stereo partly shown) | 16.3% |

| Structure (SMILES) | hERG current change (%, negative = inhibition) at 1uM |
| --- | --- |
| COc1ccc(N2C(=O)NC(=O)C(CCc3ccncc3)(CCc3ccncc3)C2=O)cc1 | 0.0961% |
| CCOC(=O)N1CCN(C(=O)c2ccc3c(=O)n(CCc4ccccc4)c(=S)[nH]c3c2)CC1 | 5.65% |
| COc1ccc(CN2CCNC(=O)C2CC(=O)N(C)Cc2cc(C)no2)cc1OC (stereo not shown) | 6.52% |
| CCCCn1c(N)c(N(CC(C)C)C(=O)CCCn2c(=O)oc3ccccc32)c(=O)[nH]c1=O | -3.99% |
| O=C(O)CN1C(=O)/C(=C\c2cccc(OC(=O)c3ccco3)c2)SC1=S | 5.92% |
| Cc1ccsc1C(=O)NCCC(c1ccccc1)c1ccccc1 | 14.2% |
| COC(=O)c1ccc2c(=O)n(CC3CCCO3)c(SCC(=O)NCCc3ccc(S(N)(=O)=O)cc3)nc2c1 (stereo not shown) | 8.72% |
| O=C(Nc1nc2cc3c(cc2s1)OCCO3)c1cccc(N2C(=O)CCC2=O)c1 | -8.15% |
| COc1cc(/C=N/NC(=O)c2ccncc2)ccc1OC(=O)c1ccco1 | 10.5% |
| CCCCSc1nc2c(c(=O)[nH]c(=O)n2C)n1CCc1ccccc1 | 10% |
| COc1cccc(CNC(=O)C2(C)Oc3ccccc3NC2=O)c1 (stereo not shown) | 13.7% |
| CSc1nc(N2CCOCC2)c2ccccc2n1 | 3.95% |
| CC(=O)Nc1ccc(N2C(=O)CC(N3CC(C)OC(C)C3)C2=O)cc1 (stereo not shown) | 10.7% |
| Cc1cc(OCC(=O)NCc2ccccn2)cc(C)c1Br | 7.49% |
| COc1cc(/C=N/NC(=O)c2cccnc2)ccc1OC(=O)c1cc(OC)c(OC)c(OC)c1 | 19% |
| O=C(CSc1nnc(-c2ccco2)o1)N1CCOCC1 | -1.5% |
| CN1CCN(C(=O)C2CCCN(c3ncnc4c3nc3n4CCCCC3)C2)CC1 (stereo not shown) | 14.5% |
| CCCCn1c(=N)n(CC(O)COc2cccc(C)c2)c2ccccc21.Cl (stereo not shown) | -59.8% |
| CCOc1ccc(N(C(=O)c2snc(C(N)=O)c2N)C(C(=O)NC2CCCC2)c2ccncc2)cc1 (stereo not shown) | 14.9% |
| COc1ccc(CN2CCN(C(=O)Cc3ccccc3)CC2)cc1Br.O=C(O)C(=O)O | 16.8% |
| Nc1ccc(Oc2ccc([N+](=O)[O-])cc2[N+](=O)[O-])cc1 | -5.14% |
| Cc1ccc(NCc2ccncc2)c(Br)c1.O=C(O)C(=O)O | 0.799% |

| Structure (SMILES) | hERG current change (%, negative = inhibition) at 1uM |
| --- | --- |
| N#Cc1cc(-c2ccccc2)nnc1Oc1ccccc1Cl | 12.9% |
| CC(=O)Nc1ccc(NC(=O)CSc2nnc(C)n2-c2ccccc2)cc1 | 18.9% |
| N#Cc1cccc(NC(=O)c2ccccc2C(=O)O)c1 | 2.51% |
| Cc1ccc(NC(=O)c2nc[nH]c2C(=O)N2CCOCC2)c(C(=O)c2ccccc2)c1 | 7.55% |
| CC1=CN2C(=NC(=O)CC2(C)C(=O)N(CC(=O)NC2CCCC2)Cc2ccc(Cl)cc2)C=C1 (stereo not shown) | 1.29% |
| Cl.OC(CN1CCOCC1)Cn1c2c(c3ccccc31)CCCC2 (stereo not shown) | 6.75% |
| CCN(Cc1ccccc1)C(=O)C(=O)c1cn(CC(=O)N2CCCC2)c2ccccc12 | 9.09% |
| CCOc1ccccc1NC(=O)CCCn1cc([N+](=O)[O-])cn1 | 7.46% |
| COc1ccc(C(=O)NCCCc2ccccc2)cc1OC | 11.4% |
| Cc1cc(C(=O)COc2cccc(-n3cnnn3)c2)c(C)n1-c1ccccc1 | 13.6% |
| Cc1ccc(S(=O)(=O)C(C)C(=O)c2ccc3c(c2)OCCO3)cc1 (stereo not shown) | -12.7% |
| CCCN(CC(=O)Nc1ccc(F)c(F)c1F)C(=O)c1cc([N+](=O)[O-])ccc1N1CCOCC1 | -19.8% |
| CCN1CCN(c2ccc(NC(=O)c3ccc(Cl)c(N4CCCC4=O)c3)cc2)CC1 | 9.94% |
| NC(=O)[C@H]1CC2(CC(c3cccc(NC(=O)COc4ccc(Cl)cc4)c3)=NO2)CN1C(=O)CC(c1ccccc1)c1ccccc1 (stereo partly shown) | 8.15% |
| O=c1c2cccnc2n(-c2ccccc2)n1Cc1ccc(Cl)cc1 | 11.6% |
| COc1ccccc1/C=C/CN1CCC(Oc2ccc(C(=O)N3CCCCC3)cc2)CC1 | 7.23% |
| CCc1ccc(C(C)NC(=O)c2ccc3c(c2)OCO3)cc1 (stereo not shown) | 9% |
| CC(=O)N1N=C(c2cccc(NS(=O)(=O)c3ccc(C)cc3)c2)CC1c1ccco1 (stereo not shown) | 20.7% |
| CCOc1ccc(NC(=O)N(C2CCCCCC2)C2CCN(C(C)=O)CC2)cc1 | 8.07% |
| CCOc1ccccc1NC(=S)NCc1cccn1C | 4.25% |
| Cc1ccc(C)c(NS(=O)(=O)c2ccc(OCC(=O)N3CCCC3)cc2)c1 | -3.59% |
| COc1ccc(NC(=O)CCS(=O)(=O)c2ccc3c(c2)CCN3C(C)=O)cc1 | 18.3% |

| Structure (SMILES) | hERG current change (%, negative = inhibition) at 1uM |
| --- | --- |
| c1ccc(OCc2nn3c(-c4cccnc4)nnc3s2)cc1 | -11.4% |
| COc1ccc(CCN(Cc2cccs2)S(=O)(=O)c2ccc(-n3cnnn3)cc2)cc1OC | -17.8% |
| Cn1cnnc1SC1CCCCC1NS(=O)(=O)c1ccc(Cl)cc1 (stereo not shown) | 12.9% |
| O=C(Nc1ccnn1C1CCN(Cc2ccc(O)c(Cl)c2)CC1)C1CCCC1 | -6.39% |
| O=C(CSc1nnc(C2COc3ccccc3O2)o1)Nc1ccc(F)cc1Cl (stereo not shown) | 13.3% |
| Cc1ccc(NC(=O)CN(C)C(=O)c2ccc(Br)o2)cc1 | 12.2% |
| CCCC(=O)Nc1cccc(-c2cn3ccsc3n2)c1 | -4.48% |
| CCn1cc(C(=O)NCCCN(CC(C)C)CC(C)C)c(=O)c2cc(S(=O)(=O)N(C)C3CCCCC3)ccc21 | -6.68% |
| Cc1ccc(S(=O)(=O)N2CCOCC2)cc1NC(=O)CNCc1cccnc1.O=C(O)C(=O)O | 7.98% |
| c1ccc(NC2=NCCN2CC2CCC2)cc1 | 6.07% |
| Cc1ccsc1C(=O)C1CCCN(Cc2cnc(N(C)C)s2)C1 (stereo not shown) | 1.44% |
| Cc1ccc(-n2c(Cc3ccccc3)n[nH]c2=S)c(C)c1 | 16% |
| O=C(NCc1ccc(Cl)cc1)c1cccc(NC(=O)c2ccccc2)c1 | -8.97% |
| C/C(NC(=O)c1ccccc1)=C1/C(=O)CC2C1C2(C)C (stereo not shown) | 0.19% |
| CCc1nn(C(C)C(=O)NCCc2ccc(OC)c(OC)c2)c(=O)c2cc3occc3n12 (stereo not shown) | 7.83% |
| Cc1ccc(OCC(=O)N/N=C\c2c(C)n(C)c3ccccc23)c([N+](=O)[O-])c1 | 14.5% |
| Cc1ccc(Cn2nc(C)c(NC(=O)CSc3n[nH]c(C)c3[N+](=O)[O-])c2C)cc1 | 16.8% |
| Cc1cc(OCCSc2nnc(-c3cccs3)n2C)ccc1Cl | 6.45% |
| Cc1ccc(CCNC(=O)C2CCC(=O)N2C(C)C)cc1 (stereo not shown) | 15.7% |
